According to ChEMBL document CHEMBL1201862, “PubChem BioAssay data set” (2004):

Each molecule was assayed on NCI-H322M (assay: NCI-60 cell line screen, 48 h).

Structure (SMILES)	GI50
Cc1ccccc1C(=O)c1cc(O)ccc1O	inactive: > 100 µM
Cn1c(=O)c(C(=O)NC(=O)NCCCCCOC(=O)CCCCCCCCCCC(=O)OCCCCCNC(=O)NC(=O)c2cn(Cc3ccccc3)c(=O)n(C)c2=O)cn(Cc2ccccc2)c1=O	inactive: > 100 µM
CCOC(=O)/C=C1\Nc2ccccc2-n2nnnc21	inactive: > 100 µM
O=S1(=O)OCCOS(=O)(=O)C1Br	inactive: > 100 µM
COc1cc(-c2ccccc2)cn2c1nc1ccccc12	inactive: > 10 µM
C=C1CC(OC)(C(O)C(=O)N[C@H]2OCO[C@H]3C2O[C@H](C[C@H](O)COC)C(C)(C)C3OC)O[C@H](C)[C@@H]1C (stereo partly drawn)	active: < 0.00773 µM
CC(=O)OC(Cc1ccc2ccccc2n1)(C(F)(F)F)C(F)(F)F	inactive: 2.06 µM
O=[N+]([O-])c1cccc2nc3ccccc3c(NCCNCCO)c12	active: 0.0153 µM
CCNC(=O)O/N=C1\CCC2[C@@H]3CC=C4C[C@@H](OC5CCCCO5)CC[C@]4(C)C3CC[C@]12C (stereo partly drawn)	inactive: 4.24 µM
O=CC1C(Cl)=Nc2nc3ccccc3n2C1c1ccc([N+](=O)[O-])cc1 (stereo not drawn)	inactive: 21 µM
COc1cc2c(c(O)c1OC)C(=O)C(Cc1ccc(O)cc1)CO2 (stereo not drawn)	inactive: 78.7 µM
CC1=C(/C=C/C(C)=C/C=C/C(C)=C/C(=O)OCC2OC(n3cc(F)c(=O)[nH]c3=O)CC2OC(=O)/C=C(C)/C=C/C=C(C)/C=C/C2=C(C)CCCC2(C)C)C(C)(C)CCC1 (stereo not drawn)	active: 1.01 µM
CCN(CC)c1ccc2cc(C(=O)Nc3ccc(C)cc3)c(=N)oc2c1	inactive: > 100 µM
CCOC(=O)C1=C(O)C(=O)c2c(OC)ccc(OC)c2C1=O	inactive: > 100 µM
CCC(C)(C)C1CCC2c3c([nH]c4ccccc34)C3C(=O)N(c4ccc(OC)cc4)C(=O)C3C2C1 (stereo not drawn)	inactive: 23.9 µM
CC1(C)Oc2ccccc2[N+]([O-])=C1c1ccccc1	inactive: > 100 µM
CSC(=S)Nc1cc(C)ccn1	inactive: > 100 µM
CN(C)CCCN1c2ccc([N+](=O)[O-])cc2CCc2cc([N+](=O)[O-])ccc21	inactive: 14.8 µM
COC(=O)C(Cc1c[nH]c2ccccc12)NC(=O)c1ccc(-c2ccc(Cl)cc2Cl)o1 (stereo not drawn)	inactive: 59.4 µM
COC1/C=C/C(C)C(OC)CC(O)/C=C/C(C)C(C(C)C(OC)C(C)CCC(=O)C(C)C(C/C=C/N(C)C=O)OC)OC(=O)/C=C/C=C(\C)CC(OC)C(OC)C2=CC(=O)O[C@@H](C(C)C(OC)C1)[C@H]2O (stereo partly drawn)	active: 0.0649 µM
NN	inactive: 671 µM

Structure (SMILES)	GI50
COc1ccc(C2C(C#N)=C(S)N(C3OC(CO)C(O)C(O)C3O)C(c3ccccc3)=C2C(C)=O)cc1 (stereo not drawn)	inactive: > 100 µM
CC[C@@H](CCCCC1CC[C@H]2CC(=O)C[C@@H]12)OC (stereo partly drawn)	inactive: > 100 µM
COC(=O)c1ccccc1C1CN=NC12Cc1c(C)cc(C)cc1C2=O (stereo not drawn)	inactive: 77.1 µM
COc1ccc2nc(-n3c(/C=C/c4ccccc4O)nc4ccccc4c3=O)sc2c1	inactive: 52.1 µM
N#Cc1ccc(/N=N/N2CCCC2)cc1	inactive: > 100 µM
C[C@H](CC[C@@H](O)C(C)(C)O)[C@H]1CC[C@@]2(C)[C@@H]3CC=C4[C@@H](CC[C@H](O)C4(C)C)[C@]3(C)C(=O)C[C@]12C [BRYODULCOSIGENIN]	inactive: 23.6 µM
Cc1cccc2c1C/C(=C\c1cccc(C)c1C(=O)O)C2=O	inactive: > 100 µM
CC(=O)NC(Cc1ccc(O)cc1)C(=O)O (stereo not drawn)	inactive: > 100 µM
COC(=O)C1CC(C=[N+](C)C)=C(SC)N1 (stereo not drawn)	inactive: 30.9 µM
O=S(=O)(C1=CC(S(=O)(=O)c2ccccc2)CN(Cc2ccccc2)C1c1cccc2ccccc12)c1ccccc1 (stereo not drawn)	inactive: > 69 µM
COC(=O)c1cc(NC2OCC(OC(C)=O)C(OC(C)=O)C2OC(C)=O)nc(SC)c1C(=O)OC (stereo not drawn)	inactive: > 100 µM
COC(=O)[C@@H]1C[C@H](c2ccc(OC)c(OC)c2)OC1=O.COC(=O)[C@H]1C[C@H](c2ccc(OC)c(OC)c2)OC1=O	inactive: > 100 µM
C1CSCCSCCSCCSCCS1	inactive: > 100 µM
CC(C)(c1ccc(Oc2ccc(C#N)c(C#N)c2)cc1)c1ccc(Oc2ccc(C#N)c(C#N)c2)cc1	inactive: > 10 µM
Cc1cc2c(=O)cc(-c3ccc(C(=O)O)cc3)oc2c(C(N)=O)c1C	inactive: > 100 µM
CCOC(=O)C(C)(C(=O)OCC)/C(Cl)=C\Cl	inactive: 2.16 µM
Cc1c(/C=N\NC(=S)NCCNC(=S)N/N=C\c2c(C)n(C)n(-c3ccccc3)c2=O)c(=O)n(-c2ccccc2)n1C	inactive: > 100 µM
COc1cc(CCCl)c(CC2=NCCc3cc(OC)c(OC)cc32)cc1OC	inactive: 81.8 µM
COC1CC2C=CC3C4OC2(/C(C)=C/C(C)C(C(C)O)OC1=O)C3C(O)C(C)C4OC(=O)c1ccc[nH]1 (stereo not drawn)	inactive: > 100 µM
CC(=O)OCCCOCn1c(Cc2ccccc2)c(C)c(=O)[nH]c1=O	inactive: > 100 µM
COc1cccc2c1C(=O)c1c(O)c3c(c(O)c1C2=O)CC(O)(C(O)CO)CC3OC1CC2C(OC3COCC(C#N)N32)C(C)O1 (stereo not drawn)	active: < 0.01 µM

Structure (SMILES)	GI50
Cn1cnc2c1c(=O)n(CCNCCO)c(=O)n2C	inactive: > 100 µM
Cc1ccccc1SC(/C=C/NNC1=NN=C(c2ccccc2)C(c2ccccc2)N1)c1ccccc1 (stereo not drawn)	inactive: 15.3 µM
CC1(C)C(CCO)CC1n1ccc(=O)[nH]c1=O (stereo not drawn)	inactive: > 100 µM
C[C@]12CCC(O)CC1=CC[C@@H]1[C@@H]2CC[C@]2(C)C(O)[C@H](n3ccnc3)C[C@@H]12 (stereo partly drawn)	inactive: > 100 µM
c1ccc2[nH]c3nc4ccccc4c-3cc2c1	active: 0.244 µM
CCOCCOC(=O)C1CCC(=O)N1CN(C(C)=O)c1cc(OC)ccc1OC (stereo not drawn)	inactive: > 100 µM
Cc1nnc(N)s/c1=N/O	inactive: > 100 µM
c1ccc2c(NCCCCCCCCNc3c4ccccc4nc4ccccc34)c3ccccc3nc2c1	active: 0.188 µM
CC1=C(N2CC2)C(=O)c2nc3n(c2C1=O)CCC3OC(=O)CCl (stereo not drawn)	active: 0.075 µM
C=CCNC1=C2C[C@@H](C)C[C@@H](OC)[C@H](OC(=O)CCN(C)C)[C@H](C)/C=C(\C)[C@@H](OC(N)=O)[C@H](OC)/C=C\C=C(/C)C(=O)NC(=CC1=O)C2=O	inactive: 3.05 µM
O=C(c1ccccc1)c1ccc2c(c1)NC(=O)c1ccccc1SSc1ccccc1C(=O)N2	inactive: > 100 µM
Cc1ccc(SCC(CF)OCn2cc(F)c(=O)[nH]c2=O)cc1 (stereo not drawn)	inactive: > 100 µM
COc1cc(/C=C2\CCc3ccccc3C2=O)cc(OC)c1OC	inactive: 17.6 µM
COc1cc2oc(=O)cc(C)c2cc1O	inactive: > 100 µM
COc1cc(C2C(Cl)C(=O)N2n2cnc3ccccc3c2=O)cc(OC)c1OC (stereo not drawn)	inactive: > 100 µM
COc1ccccc1N=C(S)Nc1ccccn1	inactive: > 100 µM
O=C1C=CC[C@H]2O[C@@H](COC(=O)Cc3ccccc3)C[C@H]2O1	inactive: 31.4 µM
CNc1ncnc2c1cnn2Cc1cn(CCCCO)nn1	inactive: > 100 µM
Nc1n[n+]2cc(-c3ccccc3)n(CC(=O)c3ccccc3)c2s1	inactive: 47.2 µM
Cc1ccc(S(=O)(=O)NCCCSCCO)cc1	inactive: > 100 µM
CN(C)CCCCN1c2ccccc2Sc2ccc(C(=O)c3ccccc3)cc21	inactive: 2.33 µM

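Five concentrations, 48 hours, 96-well plates. GI50 is the concentration that inhibits growth by half.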 Activity calls are given as the source filed them. No stated cut-off is given here; in the data, active = GI50 up to about 1.1 µM and inactive = higher.
